# In the antibiotic and cytotoxicity screens of Wong et al. (2023):
# This is one part of the list.
# Columns and labels:
# [1] = tested on: HSkMC (human skeletal muscle cells); experiment: cytotoxicity call (relative viability < 0.9); details: 10 µM
# [2] = tested on: HepG2; experiment: cytotoxicity call (relative viability < 0.9); details: 10 µM
# [3] = tested on: S. aureus RN4220; experiment: growth inhibition call (relative growth <= 0.2); details: 50 µM
Structure (SMILES),cytotoxicity call [1],cytotoxicity call [2],growth inhibition call [3]
NCC[C@@H]1CC[C@@H](NC(=O)Nc2ccc(F)cc2)[C@H](CO)O1,inactive,inactive,inactive
C[C@@H]1CN([C@H](C)CO)S(=O)(=O)c2ccc(Br)cc2O[C@H]1CN(C)C(=O)c1cnccn1,inactive,inactive,inactive
NCc1cccc(N2CCCCC2)c1,inactive,inactive,inactive
O=C(N[C@H](c1ccc(Cl)cc1)c1cnccn1)C1CCN(Cc2ccc(Oc3ccccc3)cc2)CC1,inactive,active,active
COc1cc(/C=C/C(=O)N2CCC=CC2=O)cc(OC)c1OCCOCCOCCOCCC(=O)OC(C)(C)C,active,active,inactive
Cc1ccc(C)c(S(=O)(=O)N2[C@@H]3CC[C@@H](C3)[C@H]2c2nc3cccc(OCc4ccc(F)cc4)c3[nH]2)c1,inactive,inactive,inactive
CC(C)C#Cc1ccc2c(c1)O[C@@H](CN(C)C(=O)c1cccc(F)c1)[C@H](C)CN([C@H](C)CO)S2(=O)=O,inactive,inactive,inactive
C[C@H](CO)N1C[C@H](C)[C@H](CN(C)S(=O)(=O)c2ccc(Cl)cc2)Oc2ccc(NC(=O)Cn3cnnn3)cc2C1=O,inactive,inactive,inactive
Cn1ccnc1C(=O)N[C@@H]1CN(C(N)=O)[C@H]2CCCO[C@@H]12,inactive,inactive,inactive
COc1ccc(NC(=O)Nc2ccc3c(c2)CC(=O)N([C@H](C)CO)C[C@H](C)[C@@H](CN(C)S(=O)(=O)c2cn(C)cn2)O3)cc1,inactive,inactive,inactive
C[C@H](CO)N1C[C@H](C)[C@H](CN(C)Cc2ccc(C(=O)O)cc2)Oc2ccc(NS(=O)(=O)c3ccccc3)cc2CC1=O,inactive,inactive,inactive
Cc1noc(C)c1S(=O)(=O)N(C)C[C@H]1Oc2ccc(NC(=O)Cc3ccccc3)cc2CC(=O)N([C@H](C)CO)C[C@@H]1C,inactive,inactive,inactive
C[C@@H]1CN([C@@H](C)CO)C(=O)c2cc(NC(=O)Nc3ccc4c(c3)OCO4)ccc2O[C@@H](C)CCCCO[C@H]1CN(C)Cc1ccncc1,inactive,inactive,inactive
COc1ccc(NC(=O)N[C@@H]2CC[C@H](CCNC(=O)CN3CCOCC3)O[C@H]2CO)cc1,inactive,inactive,inactive
C[C@@H]1CN([C@H](C)CO)C(=O)c2cc(NS(=O)(=O)c3ccc(F)cc3)ccc2O[C@@H](C)CCCCO[C@@H]1CN(C)CC1CCCCC1,inactive,inactive,inactive
CCCCc1nc(-c2ccc(OCCCN(CC)CC)cc2)cn1-c1ccc(Oc2ccc(Cl)cc2)cc1,active,active,active
Cc1ccc(S(=O)(=O)N(C)C[C@H]2OCCCC[C@@H](C)Oc3ccc(NC(=O)Nc4ccccc4)cc3C(=O)N([C@@H](C)CO)C[C@@H]2C)cc1,inactive,inactive,inactive
C[C@H]1CN([C@@H](C)CO)S(=O)(=O)c2ccc(C#CC3CCCCC3)cc2O[C@H]1CN(C)C(=O)Cc1ccncc1,inactive,inactive,inactive
C[C@H](CO)N1C[C@H](C)[C@@H](CN(C)CC2CCOCC2)Oc2cc(C#Cc3cccnc3)ccc2S1(=O)=O,inactive,inactive,inactive
COc1ccc(NC(=O)Nc2ccc3c(c2)C(=O)N([C@H](C)CO)C[C@@H](C)[C@H](CN(C)S(=O)(=O)c2ccc(Cl)cc2)OCCCC[C@@H](C)O3)cc1,inactive,active,inactive
C[n+]1cccc(C(=O)NO)c1,inactive,inactive,inactive
C[C@@H]1CCCCO[C@H](CN(C)CC2CCCCC2)[C@H](C)CN([C@H](C)CO)C(=O)c2cc(NS(=O)(=O)c3ccc(F)cc3)ccc2O1,inactive,inactive,inactive
CO[C@H]1CN(C)C(=O)c2cc(NS(=O)(=O)CC(F)(F)F)ccc2OC[C@@H](C)N(C(=O)c2ccc3c(c2)OCO3)C[C@@H]1C,inactive,inactive,inactive
COc1ccc(NC(=O)N(C)C[C@H]2OCCCC[C@@H](C)Oc3ccc(NS(=O)(=O)c4ccc(Cl)cc4)cc3C(=O)N([C@H](C)CO)C[C@@H]2C)cc1,inactive,inactive,inactive
Cc1noc(C)c1NC(=O)Nc1ccc2c(c1)C(=O)N([C@H](C)CO)C[C@H](C)[C@@H](CN(C)Cc1ccc3c(c1)OCO3)OCCCC[C@@H](C)O2,inactive,inactive,inactive
C[C@H](CO)N1C[C@H](C)[C@H](CN(C)S(C)(=O)=O)Oc2c(NC(=O)Nc3ccc(F)cc3)cccc2C1=O,inactive,inactive,inactive
